Measured values as given in PubChem BioAssay AID1460 (National Center for Advancing Translational Sciences (NCATS), 2008).
Among all 270,000 compounds or so, about 5,800 (2.1%) were called active. The inconclusive results got no clear call from the source; some entries with a clear call stand among them for comparison. The call rests on the fitted dose curve; in most records, active means well fitted inhibition curve with a large enough effect; inconclusive means small, poorly fitted or top-dose-only effect; inactive means flat fitted curve, though single readings scatter. Potencies beside an inconclusive call are fits to weak or partial responses and may not hold up.

molecular target: Microtubule-associated protein tau (Homo sapiens) (UniProt P10636); assay: qHTS for Inhibitors of Tau Fibril Formation, Thioflavin T Binding; conditions: recombinant tau K18 P301L, heparin-induced fibrillization, ThT fluorescence; series mostly up to 57.4 µM; further: nearly all actives have a fitted effect of over 55% in size
Chain of UniProt P10636 (P10636 whole entry, looked up): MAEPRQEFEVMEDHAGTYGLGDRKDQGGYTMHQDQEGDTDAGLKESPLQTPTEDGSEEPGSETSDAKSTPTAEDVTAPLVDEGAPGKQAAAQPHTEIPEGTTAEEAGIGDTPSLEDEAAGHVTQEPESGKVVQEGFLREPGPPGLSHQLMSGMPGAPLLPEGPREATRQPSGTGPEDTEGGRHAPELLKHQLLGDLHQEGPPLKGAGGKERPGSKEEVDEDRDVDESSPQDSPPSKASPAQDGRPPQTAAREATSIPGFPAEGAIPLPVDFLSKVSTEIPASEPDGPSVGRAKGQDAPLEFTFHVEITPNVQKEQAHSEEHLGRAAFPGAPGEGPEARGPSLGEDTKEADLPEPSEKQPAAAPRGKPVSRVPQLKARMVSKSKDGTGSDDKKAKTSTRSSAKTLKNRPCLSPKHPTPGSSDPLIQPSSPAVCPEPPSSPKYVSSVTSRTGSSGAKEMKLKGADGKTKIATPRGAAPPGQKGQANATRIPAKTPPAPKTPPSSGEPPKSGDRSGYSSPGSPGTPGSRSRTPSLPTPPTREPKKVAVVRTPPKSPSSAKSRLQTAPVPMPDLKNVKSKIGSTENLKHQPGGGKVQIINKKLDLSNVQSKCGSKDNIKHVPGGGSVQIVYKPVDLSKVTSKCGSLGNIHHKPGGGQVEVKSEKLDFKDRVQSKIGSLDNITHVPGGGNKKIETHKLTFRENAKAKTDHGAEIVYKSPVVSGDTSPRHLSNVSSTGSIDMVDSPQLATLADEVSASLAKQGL
Summary of the method: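 Fibril formation assay: tau K18 P301L at 15 uM with trace Alexa 594 label, heparin inducer 20 uM, pH 7 sodium acetate buffer, 37 C for 6 hr; endpoint ThT signal.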
Potency means the concentration at half of the fitted maximal effect; tags describe the fitted curve by direction and shape.

SMILES | Potency
Cc1cccc(Nc2nc(-c3ccccn3)cs2)n1 | inconclusive: 3.16 µM [inhibitor, full curve]
Cc1cc(OCC(O)CN2CCN(C)CC2)ccc1C(C)C (centres undefined) | inactive
O=c1c2c(n3cnnc3n1-c1ccccc1)-c1ccccc1CC21CCCCC1 | inactive
CCSc1ccccc1C(=O)N1CCN(c2ccc([N+](=O)[O-])cc2)CC1 | inconclusive: 14.1 µM [inhibitor, partial curve]
Cc1ccc2c(c1)NC(=O)C(CC(=O)NCCN(C)C)O2 (centres undefined) | inactive
CN1C(=O)CC(N2CCC(C(N)=O)CC2)C1=O (centres undefined) | inactive
COc1cccc(C2c3c(-c4cc(Cl)c(C)cc4O)n[nH]c3C(=O)N2Cc2cccnc2)c1 (centres undefined) | inconclusive: 28.2 µM [inhibitor, partial curve]
Cc1cccc(Cn2cc(S(=O)(=O)c3ccccc3)c(=O)c3cc(F)c(N4CCOCC4)cc32)c1 | inactive
CCCc1nc2ccccc2n1CCc1ccccc1 | inconclusive: 39.8 µM [inhibitor, single point]
N#CC(C#N)=C1C=C2C=C(N3CCCCCC3)CCC2CC1 (centres undefined) | inconclusive: 3.98 µM [activator, full curve]
CCCC1(C)Nc2ccccc2-c2nc3ccccc3n21 (centres undefined) | inconclusive: 20 µM [inhibitor, single point]
COc1ccc(Nc2nc(-c3cccc([N+](=O)[O-])c3)nc3ccccc23)cc1 | inconclusive: 14.1 µM [inhibitor, partial curve]
CC(C)CN(C(=O)COC(=O)c1ccc2c(c1)NC(=O)CS2)C1CCS(=O)(=O)C1 (centres undefined) | inconclusive: 28.2 µM [inhibitor, single point]
COc1ccc2[nH]c(=O)c(CN(C3CCCCC3)C(c3nnnn3Cc3ccco3)C(C)C)cc2c1 (centres undefined) | inconclusive: 31.6 µM [inhibitor, partial curve]
Cc1ccc(C)c(N2CCN(c3nc4ccc(C)cc4nc3-n3nc(C)cc3C)CC2)c1 | inconclusive: 25.1 µM [inhibitor, partial curve]
Cc1nn(-c2ccccc2)c2c1C1(C(=O)N(C(C)C)c3ccccc31)C(C#N)=C(N)O2 (centres undefined) | active: 25.1 µM
CCOCCc1nnc(NC(=O)C(=O)c2cc(C)n(-c3ccc(C)c(C)c3)c2C)s1 | inactive
O=C(Cn1cnc2nc3c(cc2c1=O)CCCC3)Nc1ccc(F)cc1Cl | inactive
CCCCNc1nc2c(S(=O)(=O)c3ccc(C)cc3)nnn2c2ccsc12 | inactive
Cc1cc(F)ccc1S(=O)(=O)N(C(=O)c1ccncc1)c1ccc(OC(=O)c2ccncc2)cc1 | inconclusive: 10 µM [inhibitor, partial curve]
O=C(CSc1nnc(C2COc3ccccc3O2)o1)Nc1nccs1 (centres undefined) | inconclusive: 5.01 µM [inhibitor, full curve]
CCN(Cc1ccncc1)Cc1cn[nH]c1-c1ccc(OC)cc1F | inactive
OC(CNCc1ccc(Cl)cc1)C(F)(F)F (centres undefined) | inactive

SMILES | Potency
c1ccc(-c2nc3ccccn3c2NC2CCCC2)nc1 | inconclusive: 11.2 µM [inhibitor, single point]
Clc1ccc(Cc2ccc(SCc3ccccc3)nn2)c(Cl)c1 | inconclusive: 25.1 µM [inhibitor, single point]
CCOC(=O)c1sc2nc(CSc3ccccc3)nc(NCCN(C)C)c2c1C | inconclusive: 0.251 µM [inhibitor, full curve, poor fit]
CCOC(=O)C1=C(C)NC(c2ccccc2)=C(C(=O)OCc2ccc([N+](=O)[O-])cc2)[C@@H]1C#Cc1ccccc1 | inactive
COc1ccc(-c2oc3cc(OC)c(O)c(OC)c3c(=O)c2OC)cc1O | inconclusive: 2.82 µM [inhibitor, single point]
Cc1ccc(NN2C(=O)C=C(c3ccccc3)C2=O)cc1 | inconclusive: 17.8 µM [inhibitor, partial curve]
CCN(CC)C(=O)CSc1nc2c(sc(=S)n2-c2ccccc2)c(=O)[nH]1 | inactive
O=C(CC1Sc2ncnn2C1=O)Nc1ccccc1 (centres undefined) | inconclusive: 20 µM [inhibitor, partial curve]
O=S(=O)(c1cccc(-c2n[nH]c(=S)n2C2CCCC2)c1)N1CCOCC1 | inactive
Nc1ccccc1-c1nnc(SCc2ccccc2F)[nH]c1=O | inconclusive: 35.5 µM [inhibitor, single point]
Cc1ccccc1Cn1nc(C)c(NC(=O)c2noc3c2CCc2ccccc2-3)c1C | inconclusive: 12.6 µM [inhibitor, partial curve]
NC(=O)CC(NC(=O)Cc1ccc(Br)cc1)c1ccc(NC2CCCCCC2)c([N+](=O)[O-])c1 (centres undefined) | inconclusive: 15.8 µM [inhibitor, partial curve]
Cc1ccc(N2CCN(S(=O)(=O)c3nnc(NC(=O)c4ccccc4)s3)CC2)cc1 | inconclusive: 1.12 µM [inhibitor, full curve]
CCCc1cc(=O)[nH]c(SCC(=O)N(C)CC(=O)Nc2ccccc2CC)n1 | inactive
Cc1ccc2c(c1)COc1c3ccc(C(=O)NCC4CC4)cc3nn1-2 | inconclusive: 0.794 µM [inhibitor, full curve, poor fit]
O=C1/C(=C\c2ccco2)SC(=S)N1Cc1ccccc1 | inconclusive: 20 µM [inhibitor, partial curve]
COc1ccc(C(=O)n2nc(-c3ccco3)nc2N)cc1OC | inconclusive: 4.47 µM [inhibitor, full curve]
Cc1c(C)n(Cc2ccccc2)c2ccc(C(=O)NCC(C)c3ccccc3)cc12 (centres undefined) | inactive
Cc1ccc(C(=O)N/N=C2\CCSC2)cc1[N+](=O)[O-] | inconclusive: 3.98 µM [inhibitor, full curve]
COc1cnn(-c2ccc(C)cc2)c(=O)c1SCc1ccccc1 | inconclusive: 35.5 µM [inhibitor, single point]
CCOc1ccc2nc(NS(=O)(=O)c3ccc(NC(C)=O)cc3)sc2c1 | inconclusive: 22.4 µM [inhibitor, partial curve, poor fit]
Cc1cc(Cl)ccc1OCCCC(=O)N1CCN(C(=O)c2ccco2)CC1 | inconclusive: 4.47 µM [inhibitor, partial curve]
CC(=O)N1CCC2(CC1)C(C#N)=C(N)Oc1n[nH]c(CSc3ccc(C)cc3)c12 | inconclusive: 25.1 µM [inhibitor, single point]

SMILES | Potency
CCOc1ccc2nc(Cl)sc2c1 | inactive
COc1ccc(OC)c(NC(=O)c2ccc3nc(-c4ccccc4)c(-c4ccccc4)nc3c2)c1 | inactive
CCCCCN1N=C(C)CC1=O | inconclusive: 3.55 µM [inhibitor, full curve, poor fit]
O=C(CSCc1ccccc1)N1CCN(c2ccccc2)CC1 | inconclusive: 0.251 µM [inhibitor, full curve, poor fit]
COc1cc(NC(=O)C/C(C)=N/NC(=O)Cc2ccc(Cl)cc2)c(OC)cc1Cl | inconclusive: 3.98 µM [inhibitor, partial curve, poor fit]
Cc1cccc(Cn2ccc(NC(=O)c3ccc4c(c3)OCO4)n2)c1 | inconclusive: 8.91 µM [inhibitor, partial curve, poor fit]
Cc1ccc(-n2[nH]c(C)c(/C=N/c3cccc(C)n3)c2=O)cc1 | inconclusive: 0.0891 µM [inhibitor, full curve, poor fit]
CC(=O)N1CCc2c(sc3c2c(=O)n(Cc2ccccc2)c(=O)n3Cc2ccc(Cl)cc2)C1 | inconclusive: 25.1 µM [inhibitor, single point]
COc1ccc(-n2c(=O)c3c4c(sc3n(Cc3ccc(F)cc3)c2=O)CN(C(C)=O)CC4)c(OC)c1 | inconclusive: 7.08 µM [inhibitor, single point]
Cn1/c(=N/N=C/c2ccccn2)sc2ccccc21 | inconclusive: 4.47 µM [inhibitor, full curve]
COC(=O)c1ccc(-c2ccc(/C=N/NC(=O)Cc3nnc(N)s3)o2)cc1 | active: 7.94 µM
CCCc1ccc(OCc2nc(-c3ccc(NC(=O)c4ccco4)cc3)no2)cc1 | inconclusive: 0.224 µM [inhibitor, full curve]
COc1ccc(C(=O)NCCSc2c[nH]c3ccccc23)cc1OC | inconclusive: 15.8 µM [inhibitor, partial curve]
CCCCc1ccc(-n2nc3ccc(NC(=O)c4cc5ccccc5o4)cc3n2)cc1 | inconclusive: 2.24 µM [inhibitor, partial curve]
CC(C)Cc1cc(C(=O)NCc2ccc(Cl)cc2)no1 | inactive
Cc1ccc(-c2cc3cccc[n+]3cc2-c2ccc(C)cc2)cc1 | inconclusive: 31.6 µM [inhibitor, single point]
CCc1ccc2oc(-c3ccc(C)c(NC(=O)c4cc([N+](=O)[O-])ccc4N4CCOCC4)c3)nc2c1 | inconclusive: 4.47 µM [inhibitor, full curve]
O=C(Nc1cccc(Br)c1)c1ccc(OC2CSC2)cc1 | inconclusive: 1.41 µM [inhibitor, full curve, poor fit]
CCCC(=O)Nc1sc(C)c(C)c1C#N | inactive
O=[N+]([O-])c1ccc(Nc2nc(N/N=C/c3cccc(F)c3)nc(N3CCCC3)n2)cc1 | inconclusive: 15.8 µM [inhibitor, partial curve]
Cc1ccc(C)n1-c1ccc(N2CCOCC2)nc1 | active: 12.6 µM
CCc1ccccc1NC(=O)CN(C)C(=O)CSc1nnc(Nc2cccc(C)c2)s1 | inconclusive: 20 µM [inhibitor, single point]
CCOc1ccc(NC(=O)Nc2nnc(N3CCCCC3C)s2)cc1 (centres undefined) | inconclusive: 22.4 µM [inhibitor, single point]
